Reference: the antibiotic and cytotoxicity screens of Wong et al. (2023)
The list shows a part of the results.

System: S. aureus RN4220
Assay: growth inhibition call (relative growth <= 0.2)
Conditions: 50 µM

Growth inhibition call, inactive:
C[C@H](CO)N1C[C@H](C)[C@@H](CN(C)S(=O)(=O)c2cn(C)cn2)OCc2cnnn2CCCC1=O, CC(C)NC(=O)Nc1ccc2c(c1)C(=O)N([C@H](C)CO)C[C@@H](C)[C@H](CN(C)C(=O)Nc1ccc(C(F)(F)F)cc1)OCCCC[C@@H](C)O2, C[C@H]1CN([C@@H](C)CO)C(=O)Cc2cc(NC(=O)Cc3cn(C)c4ccccc34)ccc2O[C@H]1CN(C)S(=O)(=O)c1cn(C)cn1, C[C@H](CO)N1C[C@H](C)[C@H](CN(C)Cc2ccc3c(c2)OCO3)OCCCC[C@H](C)Oc2ccc(NC(=O)C3CCCCC3)cc2C1=O, C[C@@H]1CN([C@H](C)CO)C(=O)c2cc(NC(=O)Nc3cccc4ccccc34)ccc2O[C@H]1CN(C)Cc1ccc(Oc2ccccc2)cc1, O=C1/C(=C/c2cn(-c3ccccc3)nc2-c2ccc(OCc3ccccc3F)cc2)SC(=S)N1CCS(=O)(=O)O, C[C@H](CO)N1C[C@H](C)[C@@H](CN(C)S(=O)(=O)c2ccc(F)cc2)OCCCC[C@H](C)Oc2ccc(NC(=O)CCC(F)(F)F)cc2C1=O, CN1C(=O)c2cc(NC(=O)C3CCOCC3)ccc2OC[C@@H]2O[C@H](CC(=O)NCc3ccc4c(c3)OCO4)CC[C@H]21, C[C@@H]1CCCCO[C@H](CN(C)Cc2ccc(C(F)(F)F)cc2)[C@H](C)CN([C@H](C)CO)C(=O)c2cc(NC(=O)Cc3ccccc3)ccc2O1, Cc1ccc(S(=O)(=O)Nc2ccc3c(c2)C(=O)N([C@@H](C)CO)C[C@@H](C)[C@H](CN(C)Cc2ccc(C(F)(F)F)cc2)OCCCC[C@H](C)O3)cc1, CCc1nc2ccc(C(=O)NC3CCN(Cc4ccccc4)CC3)cn2c1N(C)Cc1cc2ccccc2s1, C[C@@H]1CCCCO[C@H](CN(C)C(=O)CCCN(C)C)[C@@H](C)CN([C@@H](C)CO)C(=O)c2cc(NC(=O)Nc3cccc4ccccc34)ccc2O1, Cc1cc(C(=O)Nc2ccc3c(c2)C(=O)N(C)[C@H]2CC[C@H](CC(=O)NCC(F)(F)F)O[C@@H]2CO3)no1, COc1ccccc1C#Cc1cnc2c(c1)C(=O)N([C@H](C)CO)C[C@@H](C)[C@H](CN(C)C(=O)c1ccc3c(c1)OCO3)O2, O=C(C[C@H]1CC[C@H]2[C@@H](COC[C@H](O)CN2S(=O)(=O)c2cccc(F)c2)O1)NCCCN1CCOCC1, C[C@H](CO)N1C[C@H](C)[C@H](CN(C)Cc2ccc(-c3ccccc3)cc2)Oc2ccc(NC(=O)Nc3cccc4ccccc34)cc2CC1=O, Cc1ccc(S(=O)(=O)Nc2ccc3c(c2)C(=O)N([C@H](C)CO)C[C@@H](C)[C@@H](CN(C)Cc2ccc(C(=O)O)cc2)OCCCC[C@@H](C)O3)cc1, C=CC[C@@H](CC(=O)N(CCO)Cc1ccccc1)C(=O)N[C@H](COC(=O)[C@@H](CC=C)Cc1ccc(F)cc1)c1ccccc1, C[C@@H]1CN([C@@H](C)CO)C(=O)Cc2cc(NC(=O)Cn3cnnn3)ccc2O[C@@H]1CN(C)C(=O)Nc1ccc2c(c1)OCO2, Cc1noc(C)c1S(=O)(=O)Nc1cccc2c1O[C@H](CN(C)S(=O)(=O)c1cn(C)cn1)[C@H](C)CN([C@H](C)CO)C2=O, C[C@H]1CCCCO[C@@H](CN(C)Cc2ccc(C(F)(F)F)cc2)[C@@H](C)CN([C@@H](C)CO)C(=O)c2cc(NS(=O)(=O)c3cn(C)cn3)ccc2O1, COc1ccc(NC(=O)Nc2ccc3c(c2)C(=O)N([C@@H](C)CO)C[C@@H](C)[C@H](CN(C)C(=O)Nc2ccc(C(F)(F)F)cc2)OCCCC[C@@H](C)O3)cc1, O=C(C[C@H]1C[C@@H]2c3cc(NS(=O)(=O)c4ccc(F)cc4)ccc3O[C@@H]2[C@@H](CO)O1)N1CCOCC1, C[C@@]1(N)CCCC[C@@H]1C(=O)O, C[C@H](CO)N1C[C@H](C)[C@@H](CN(C)C(=O)c2cccnc2)Oc2cc(C#CC3(O)CCCC3)ccc2S1(=O)=O, Cc1ccc(S(=O)(=O)N(C)C[C@H]2Oc3c(NC(=O)c4cc(C)nn4C)cccc3C(=O)N([C@H](C)CO)C[C@@H]2C)cc1, O=C(C[C@@H]1C[C@H]2c3cc(NC(=O)C4CCOCC4)ccc3O[C@H]2[C@@H](CO)O1)NCc1cc(F)ccc1F, COC(=O)c1c2oc(c1C(=O)OC)C(=O)N[C@@H](Cc1ccccc1)Cn1cc(nn1)[C@@H](Cc1ccccc1)NC(=O)N[C@H](COC(=O)NCCCCCC(=O)NO)CC2, O=C(C=Cc1ccccc1)c1ccc(O)cc1O, C[N+](C)(C)CCCC[C@@H]1NC(=O)[C@@H]2C[C@H](C(=O)NCCCCCCNC(=O)CS)[C@H](c3cccc(OCCO)c3)N2C1=O, CN1CCN(CCCN2c3ccccc3Sc3ccc(C(F)(F)F)cc32)CC1.Cl.Cl, CO[C@@H]1CN(C)C(=O)c2cc(NC(=O)c3ccc(F)cc3)ccc2OC[C@@H](C)N(C(=O)CN(C)C)C[C@H]1C, C[C@H]1CN([C@@H](C)CO)C(=O)c2cc(-c3cccc(C#N)c3)cnc2O[C@@H]1CN(C)C(=O)C1CCOCC1, Cc1noc(C)c1S(=O)(=O)Nc1ccc2c(c1)C(=O)N([C@@H](C)CO)C[C@@H](C)[C@@H](CN(C)CC1CCCCC1)OCCCC[C@H](C)O2, C[C@@H]1CN([C@@H](C)CO)C(=O)c2cccc(NS(C)(=O)=O)c2O[C@@H]1CN(C)Cc1ccc2c(c1)OCO2, COc1ccc([C@H]2CC([C@@H]3C(=O)N[C@H]4CC[C@H](Br)C[C@@H]4[C@H]3c3ccccc3)=NN2C(=O)c2ccccc2)cc1, C[C@@H]1CN([C@H](C)CO)C(=O)Cc2cc(NC(=O)Nc3cccc4ccccc34)ccc2O[C@H]1CN(C)Cc1ccc(C(=O)Nc2ccccc2N)cc1, C[C@H](CO)N1C[C@H](C)[C@@H](CN(C)C(=O)C2CCCCC2)OCCCC[C@H](C)Oc2ccc(NC(=O)Cc3ccccc3)cc2C1=O, C[C@H](CO)N1C[C@H](C)[C@H](CN(C)S(=O)(=O)c2cn(C)cn2)Oc2ccc(NC(=O)CCN3CCOCC3)cc2C1=O, O=C(Cc1ccncc1)NCC[C@@H]1CC[C@H](NC(=O)C2CCOCC2)[C@@H](CO)O1
